In the supplement of paper PMC8728848:
This is one part of the list.

Assays:
Assay in all cases: glycan array binding signal (z-score within array); higher = stronger binding
Settings in all cases: glycan notation: IUPAC condensed, linker removed
[1] = biological target: Neu5Ac(a2-8)Neu5Ac
How it was run: (§1)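 Negative Z-scores can be read as non-binding. The Z-score is calculated within each array and then averaged across arrays of one protein sequence at different concentrations or buffers and across linkers. Arrays, 3228 in all, were curated from the Consortium for Functional Glycomics database and kept only where the protein sequence was available.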

[2] = biological target: Neu5Ac(a2-8)Neu5Ac(a2-3)Gal(b1-3)GalNAc(b1-4)[Neu5Ac(a2-3)]Gal(b1-4)Glc
How it was run: as §1

[3] = biological target: Neu5Ac(a2-8)Neu5Ac(a2-3)Gal(b1-3)GalNAc(b1-4)[Neu5Ac(a2-8)Neu5Ac(a2-3)]Gal(b1-4)Glc
How it was run: as §1

[4] = biological target: Neu5Ac(a2-8)Neu5Ac(a2-3)Gal(b1-4)Glc
How it was run: as §1

[5] = biological target: Neu5Ac(a2-8)Neu5Ac(a2-3)Gal(b1-4)GlcNAc
How it was run: as §1

[6] = biological target: Neu5Ac(a2-8)Neu5Ac(a2-3)[Gal(b1-3)GalNAc(b1-4)]Gal(b1-4)Glc
How it was run: as §1

[7] = biological target: Neu5Ac(a2-8)Neu5Ac(a2-3)[GalNAc(b1-4)]Gal(b1-4)Glc
How it was run: as §1

[8] = biological target: Neu5Ac(a2-8)Neu5Ac(a2-8)Neu5Ac
How it was run: as §1

[9] = biological target: Neu5Ac(a2-8)Neu5Ac(a2-8)Neu5Ac(a2-3)Gal(b1-4)Glc
How it was run: as §1

[10] = biological target: Neu5Ac(a2-8)Neu5Ac(a2-8)Neu5Ac(a2-3)[Gal(b1-3)GalNAc(b1-4)]Gal(b1-4)Glc
How it was run: as §1

[11] = biological target: Neu5Ac(a2-8)Neu5Ac(a2-8)Neu5Ac(a2-3)[GalNAc(b1-4)]Gal(b1-4)Glc
How it was run: as §1

[12] = biological target: Neu5Ac(a2-8)Neu5Ac(a2-8)Neu5Ac(a2-8)Neu5Ac(a2-3)[GalNAc(b1-4)]Gal(b1-4)Glc
How it was run: as §1

[13] = biological target: Neu5Ac(a2-8)Neu5Gc(a2-3)Gal(b1-4)GlcNAc
How it was run: as §1

[14] = biological target: Neu5Ac(b2-6)Gal(b1-4)GlcNAc
How it was run: as §1

[15] = biological target: Neu5Ac(b2-6)GalNAc
How it was run: as §1

[16] = biological target: Neu5Ac9Ac(a2-3)Gal(b1-3)GlcNAc
How it was run: as §1

[17] = biological target: Neu5Ac9Ac(a2-3)Gal(b1-4)GlcNAc
How it was run: as §1

[18] = biological target: Neu5Ac9Ac(a2-6)Gal(b1-4)GlcNAc
How it was run: as §1

[19] = biological target: Neu5Gc(a2-3)Gal(b1-3)GlcNAc
How it was run: as §1

[20] = biological target: Neu5Gc(a2-3)Gal(b1-3)[Fuc(a1-4)]GlcNAc
How it was run: as §1

[21] = biological target: Neu5Gc(a2-3)Gal(b1-4)Glc
How it was run: as §1

[22] = biological target: Neu5Gc(a2-3)Gal(b1-4)GlcNAc
How it was run: as §1

[23] = biological target: Neu5Gc(a2-3)Gal(b1-4)GlcNAc(b1-3)Gal(b1-4)GlcNAc(b1-2)Man(a1-3)[Neu5Gc(a2-3)Gal(b1-4)GlcNAc(b1-3)Gal(b1-4)GlcNAc(b1-2)Man(a1-6)]Man(b1-4)GlcNAc(b1-4)GlcNAc
How it was run: as §1

[24] = biological target: Neu5Gc(a2-3)Gal(b1-4)[Fuc(a1-3)]GlcNAc
How it was run: as §1

[25] = biological target: Neu5Gc(a2-6)Gal(b1-4)GlcNAc
How it was run: as §1

[26] = biological target: Neu5Gc(a2-6)GalNAc
How it was run: as §1

[27] = biological target: Neu5Gc(a2-8)Neu5Ac(a2-3)Gal(b1-4)GlcNAc
How it was run: as §1

[28] = biological target: Neu5Gc(a2-8)Neu5Gc(a2-3)Gal(b1-4)GlcNAc
How it was run: as §1

[29] = biological target: Neu5Gc(a2-8)Neu5Gc(a2-3)Gal(b1-4)GlcNAc(b1-3)Gal(b1-4)GlcNAc
How it was run: as §1

[30] = biological target: Neu5Gc(a2-8)Neu5Gc(a2-6)Gal(b1-4)GlcNAc
How it was run: as §1

B1: Pa IMPa (Pseudomonas aeruginosa), Q9I5W4 (protein)
chain: MSLSTTAFPSLQGENMSRSPIPRHRALLAGFCLAGALSAQAATQEEILDAALVSGDSSQLTDSHLVALRLQQQVERIRQTRTQLLDGLYQNLSQAYDPGAASMWVLPANPDNTLPFLIGDKGRVLASLSLEAGGRGLAYGTNVLTQLSGTNAAHAPLLKRAVQWLVNGDPGAATAKDFKVSVVGVDKTAALNGLKSAGLQPADAACNALTDASCASTSKLLVLGNGASAASLSATVRARLQAGLPILFVHTNGWNQSSTGQQILAGLGLQEGPYGGNYWDKDRVPSSRTRTRSVELGGAYGQDPALVQQIVDGSWRTDYDWSKCTSYVGRTTCDDVPGLSDFSKRVDVLKGALDAYNQKAQNLFALPGTTSLRLWLLWADAVRQNIRYPMDKAADTARFQETFVADAIVGYVREAGAAQKELGSYAGQRQQSMPVSGSEETLTLTLPSAQGFTAIGRMAAPGKRLSIRIEDAGQASLAVGLNTQRIGSTRLWNTRQYDRPRFLKSPDIKLQANQSVALVSPYGGLLQLVYSGATPGQTVTVKVTGAASQPFLDIQPGEDSSQAIADFIQALDADKADWLEIRSGSVEVHAKVEKVRGSIDKDYGGDVQRFIRELNEVFIDDAYTLAGFAIPNQAKTPAIQQECAARGWDCDSETLHKLPGTQHINVDQYAQCGGGCSGNPYDQTWGLNPRGWGESHELGHNLQVNRLKVYGGRSGEISNQIFPLHKDWRVLREFGQNLDDTRVNYRNAYNLIVAGRAEADPLAGVYKRLWEDPGTYALNGERMAFYTQWVHYWADLKNDPLQGWDIWTLLYLHQRQVDKSDWDANKAALGYGTYAQRPGNSGDASSTDGNDNLLLGLSWLTQRDQRPTFALWGIRTSAAAQAQVAAYGFAEQPAFFYANNRTNEYSTVKLLDMSQGSPAWPFP
[1]
  glycan array binding signal (z-score): -0.29
[2]
  glycan array binding signal (z-score): 0.063
[3]
  glycan array binding signal (z-score): -0.376
[4]
  glycan array binding signal (z-score): -0.299
[5]
  glycan array binding signal (z-score): 0.147
[6]
  glycan array binding signal (z-score): -0.007
[7]
  glycan array binding signal (z-score): -0.029
[8]
  glycan array binding signal (z-score): -0.349
[9]
  glycan array binding signal (z-score): 0.097
[10]
  glycan array binding signal (z-score): -0.171
[11]
  glycan array binding signal (z-score): -0.558
[12]
  glycan array binding signal (z-score): 0.058
[13]
  glycan array binding signal (z-score): -0.539
[14]
  glycan array binding signal (z-score): -0.034
[15]
  glycan array binding signal (z-score): 0.41
[16]
  glycan array binding signal (z-score): -0.161
[17]
  glycan array binding signal (z-score): 0.471
[18]
  glycan array binding signal (z-score): -0.52
[19]
  glycan array binding signal (z-score): 0.464
[20]
  glycan array binding signal (z-score): -0.162
[21]
  glycan array binding signal (z-score): -0.256
[22]
  glycan array binding signal (z-score): -0.067
[23]
  glycan array binding signal (z-score): 0.178
[24]
  glycan array binding signal (z-score): 0.877
[25]
  glycan array binding signal (z-score): 0.106
[26]
  glycan array binding signal (z-score): -0.317
[27]
  glycan array binding signal (z-score): -0.076
[28]
  glycan array binding signal (z-score): -0.213
[29]
  glycan array binding signal (z-score): -0.217
[30]
  glycan array binding signal (z-score): 0.724
